Source: PubChem BioAssay AID686979 (National Center for Advancing Translational Sciences (NCATS), 2013)
In all, about 420,000 compounds went through this assay and about 50,000 (12%) were called active. This list was built around the results that the source calls inconclusive (neither active nor inactive); the mix of calls is not that of the screen. The call rests on the fitted dose curve; in most records, active means well fitted inhibition curve with a large enough effect; inconclusive means small, poorly fitted or top-dose-only effect; inactive means flat fitted curve, though single readings scatter. No potency is given beside an inconclusive call; the fits are too rough.

Test: qHTS for Inhibitors of human tyrosyl-DNA phosphodiesterase 1 (TDP1): qHTS in cells in presence of CPT; further: nearly all actives have a fitted effect of over 55% in size
Conditions: chicken DT40 Tdp1-/-;hTDP1 cells + 20 nM CPT, ATP luminescence, 48 h; series mostly up to 46.2 µM
Summary of the method: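 Chicken DT40 Tdp1-/- cells stably complemented with human TDP1 were seeded at 400 cells/well in medium containing 20 nM camptothecin, exposed to pin-transferred compounds, and grown at 37 °C for at least 48 hr. Viability was read as ATP luminescence.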
Potency means the concentration at half of the fitted maximal effect; tags describe the fitted curve by direction and shape.

| Compound | Potency |
| --- | --- |
| Cc1csc(N/N=C/c2ccccn2)n1 | active: 0.58 µM |
| Cn1c(O)c(N=NC(N)=S)c2ccccc21 | active: 6.68 µM |
| O=C(c1ccccc1F)N1CCN(c2cccc(C(F)(F)F)c2)CC1 | inconclusive [inhibitor, single point] |
| Cn1c(=O)c2c(nc(NCc3ccccc3)n2CCCc2ccccc2)n(C)c1=O | active: 9.2 µM |
| Cc1ccc(S(=O)(=O)N(C)Cc2nc(-c3ccncc3)no2)cc1 | inconclusive [inhibitor, partial curve, poor fit] |
| CN(C)c1ccc(C2Nc3cccc4cccc(c34)N2)cc1 | inconclusive [inhibitor, single point] |
| COc1cc(OC)c(C2Nc3ccccc3-c3nnc(SCc4ccccc4)nc3O2)cc1OC (stereo not given) | inconclusive [inhibitor, single point] |
| CCC(c1nc2ccccc2[nH]1)n1c(=O)c(-c2cccnc2)nc2ccccc21 (stereo not given) | inactive |
| N#C/C(=C\c1ccc(OCc2ccccc2)cc1)C(N)=O | inconclusive [inhibitor, single point] |
| COc1ccc(C(=O)NNC(=O)c2cccs2)cc1S(=O)(=O)N1CCOCC1 | inactive |
| CN1CCN(c2ccc(CNS(=O)(=O)Cc3ccc(Cl)cc3)cc2)CC1 | inconclusive [inhibitor, single point] |
| CC(=O)Cn1c2ccccc2n2nc(CCC(=O)O)c(=O)nc12 | inactive |
| Cc1ccc(NC(=O)C2CCN(S(=O)(=O)c3ccc4c(c3)OCCCO4)CC2)nc1 | inconclusive [inhibitor, single point] |
| CCCN(C(=O)Cc1c(C(=O)O)n(C)c2ccccc12)c1cccc(C)c1 | inactive |
| O=C(CCn1ccc2cc(S(=O)(=O)N3CCCC3)ccc21)NCc1cccc(F)c1 | inconclusive [inhibitor, single point] |
| Cc1sc(NC(=O)c2ccco2)c(C(c2ccncc2)N2CCOCC2)c1C (stereo not given) | inactive |
| O=S(=O)(c1ccccc1)N1CCCC1c1cccs1 (stereo not given) | inconclusive [inhibitor, full curve] |
| O=C(Nc1ccn(C2CC(OC(=O)c3ccccc3)C(CO)O2)c(=O)n1)c1ccccc1 (stereo not given) | inactive |
| Cc1cc(C)cc(-n2c(SCC(=O)Nc3cccc(S(=O)(=O)NC4=NCCCCC4)c3)nc3ccccc3c2=O)c1 | active: 18.4 µM |
| Cc1ccc(CNC(=O)Nc2ccc(OC(F)(F)F)cc2)n1C | inconclusive [inhibitor, single point] |
| Cc1ccc(C(=O)Nc2nnc(C)s2)cc1 | inactive |
| Cc1ccc2cc(/C=C3\N=C(c4ccccc4)OC3=O)c(N3CCOCC3)nc2c1 | inconclusive [inhibitor, single point] |
| COc1ccc(CC(N)c2csc(NC(=O)Nc3ccccc3C(C)(C)C)n2)cc1 (stereo not given) | inconclusive [inhibitor, single point] |

| Compound | Potency |
| --- | --- |
| Cc1ccc(NC(=O)COC(=O)Cn2c(C)csc2=O)c([N+](=O)[O-])c1 | inconclusive [inhibitor, partial curve] |
| COc1ccc(Cl)cc1NC(=O)CSc1nc(N2CCOCC2)nc(N2CCOCC2)n1 | inconclusive [inhibitor, single point] |
| CCCCC(=O)Nc1ccc(C(=O)Nc2nc(CC(=O)OCC)cs2)cc1 | active: 22.4 µM |
| C=CCc1cc(Cl)ccc1OCCn1ccnc1 | inactive |
| Cc1cccc(CN2CCC(C(=O)Nc3ccc(Oc4cccnc4)cc3)CC2)c1 | inconclusive [inhibitor, single point] |
| CC(C)c1cccc(-c2csc(C(C)(O)c3ccc(F)c(F)c3)n2)c1 (stereo not given) | inconclusive [inhibitor, single point] |
| C[C@@H](C(=O)Nc1ccc2ccccc2c1)[C@H]1C[C@]1(C)[C@H](NC(=O)OCc1ccccc1)c1ccccc1 | active: 18.4 µM |
| CCOC(=O)Cn1ccc2cc(S(=O)(=O)N3CCCC3)ccc21 | inactive |
| CCOc1ccc(CNCCc2ccc(S(N)(=O)=O)cc2)cc1 | inconclusive [inhibitor, partial curve] |
| Cc1ccc(S(=O)(=O)N2CCN(CC(=O)N/N=C/c3cc([N+](=O)[O-])ccc3Cl)CC2)cc1 | inconclusive [inhibitor, partial curve] |
| Cc1cc(-n2cnnn2)cc(C)c1S(=O)(=O)N(C)c1ccccc1 | inconclusive [inhibitor, single point] |
| COc1ccc(C(O)c2ncc(-c3ccccc3Cl)[nH]2)cc1F (stereo not given) | inconclusive [inhibitor, single point] |
| COCCCNC(=O)C[C@@H]1C[C@@]2(C(=O)OC)CC(C)(C)CC=C2N(Cc2cccc3ccccc23)C1=O | inconclusive [inhibitor, single point] |
| Cc1cccc(N(Cc2cc3ccccc3[nH]c2=O)S(=O)(=O)c2ccccc2)c1 | inconclusive [inhibitor, partial curve] |
| Cc1ccc(/C(=C\CN2CCCC2)c2cccc(/C=C/C(=O)O)n2)cc1 | inactive |
| COc1ccccc1N=NNc1ccc(S(=O)(=O)NC(C)=O)cc1 | inconclusive [inhibitor, single point] |
| Cc1ccc(/C=C/C(=O)c2nc3ccccc3[nH]2)cc1 | active: 20.6 µM |
| COc1ccc(S(=O)(=O)Nc2ccc3c(c2)C(=O)N([C@H](C)CO)C[C@H](C)[C@@H](CN(C)Cc2ccncc2)OCCCC[C@@H](C)O3)cc1 | inactive |
| CCN(C(=O)c1cnc2scc(C)n2c1=O)c1ccccc1C | inconclusive [inhibitor, single point] |
| Cn1c(SCC(=O)c2ccc(F)cc2)ncc(C(=O)Nc2ccccc2)c1=O | inconclusive [inhibitor, single point] |
| COc1ccc(Nc2nc(Cl)nc(NCc3ccco3)n2)cc1 | inactive |
| O=C(c1ccco1)N1N=C(c2cccs2)CC1c1ccc(F)cc1 (stereo not given) | inactive |
